# Measured values as given in article PMC12136788.
# This is one part of the list.
# B1: chr1:183142599:183142700:+|CDS|ENSG00000135862|msi1|total|mutant (ssRNA)
# RNA: GGGAGUUCUACAGUCCGACGAUCAACGAGAUUGAAGGCACCCUAAACAAAGCCAAAGAUGAAAUGAAGGUCAGCGAUCUUGACCGGAAAGUGUCUGACCUGGAGAAUGAAGCCAAGAAGCAGGAGGCUGCCAUCAUGGACUAUCAACAGAGGAUUGAGCAUCA
# B2: chr5:60870179:60870280:-|3pUTR|ENSG00000049167|unk|FALSE|unique (ssRNA)
# RNA: GGGAGUUCUACAGUCCGACGAUCUCUCCUUGCCCUUUUUGUUUUGUUUUGUUUCAAUUCUUAGAACUGUAGUUGGCAUGUAGUAGGUGCUUAAUAAUUACUUGUUUUGUUGUUUCUGUCCUAUACUUUGAGAGUUUGUGUUUGCAACAGAGGAUUGAGCAUCA
# B3: ENSG00000124766:be:win_751|CDS|ENSG00000124766|bound_else_gene|NA|bound_elsewhere_windowed (ssRNA)
# RNA: GGGAGUUCUACAGUCCGACGAUCGGCGCCGCCGCCGACCACCACUCGCUGUACAAGGCGCGGACUCCCAGCGCCUCGGCCUCCGCCUCCUCGGCAGCCUCGGCCUCCGCAGCGCUCGCGGCCCCGGGCAAGCACCUGGCGGAGCAACAGAGGAUUGAGCAUCA
# B4: ENSG00000180447:stop:overlap|stop_codon|ENSG00000180447|stop_codon|NA|stop_codon (ssRNA)
# RNA: GGGAGUUCUACAGUCCGACGAUCCCCGGGGCGCCUGGACCCCACUCGCCUCCAUCUUGCUGCUGCUGCUUGGGCCGCUCUUUUAGCCCUCGCGCCCCCCGCCGUUGGCUGCGGGAGAGCCCGCGUCCCACUCCCGUGCUCGCCCAACAGAGGAUUGAGCAUCA
# B5: ENSG00000107863:be:win_3901|CDS|ENSG00000107863|bound_else_gene|NA|bound_elsewhere_windowed (ssRNA)
# RNA: GGGAGUUCUACAGUCCGACGAUCGUGUUUGGUCCCACCCUUGUUCGAACAUCAGAAGACAACAUGACCCACAUGGUCACCCACAUGCCUGACCAGUACAAGAUUGUAGAAACGCUCAUCCAGCACCAUGACUGGUUUUUCACACAACAGAGGAUUGAGCAUCA
# B6: chr7:137227872:137228000:-|3pUTR|ENSG00000105894|msi1_unk|total|mutant (ssRNA)
# RNA: GGGAGUUCUACAGUCCGACGAUCGGAACAUAAAAAGGACAUCAGCAAACAGGAUCAGUUAACUAUUGCAUUUAUAUGUACCGCCGGCUUUGUAUUCAAAAAUUAUCUACCGCUAAGUACACAAUAAGCAAAAACAAAAAGAAACAACAGAGGAUUGAGCAUCA
# B7: chrX:18604022:18604123:+|CDS|ENSG00000008086|msi1|FALSE|unique (ssRNA)
# RNA: GGGAGUUCUACAGUCCGACGAUCGACGAAGGUCUCCCUGCCAAUGAAAGCUUCCUAAAUGGAAACCUUGCUGGAGCUAGUCUUAGUCCACUGCACACCAAAACCUACCAAGCAAGCAGCCAGCCUGGGUCUACCAGCAAAGAUCAACAGAGGAUUGAGCAUCA
# B8: ENSG00000198589:be:win_5601|CDS|ENSG00000198589|bound_else_gene|NA|bound_elsewhere_windowed (ssRNA)
# RNA: GGGAGUUCUACAGUCCGACGAUCGAAGAAUGCAGGCCUUGCUUUUAUCGAACUUGUCAAUGAAGGAAGGUUGCUUAGCCAGACAAUGAAGGAUCAUCUAGUAAGAGUAGCAAAUGAAGCUGAAUUUAUCCUGAGCAGGCAGAGCAACAGAGGAUUGAGCAUCA
# B9: chr12:123586815:123586897:+|5pUTR_CDS|ENSG00000086598|msi1_unk|total|mutant (ssRNA)
# RNA: GGGAGUUCUACAGUCCGACGAUCGAAUCCAGUGGGAAAUACACAUUUGCUGCUCACAUGGAUGGAACAUACAAAUUUUGUUUCCGUAACCGGAUGUCCACCAUGACUCCAAAAACCGUGAUGUUCACCAUUGAUAUUGGGGAGCAACAGAGGAUUGAGCAUCA
# B10: chr14:22612100:22612201:+|3pUTR|ENSG00000100439|msi1|total|mutant (ssRNA)
# RNA: GGGAGUUCUACAGUCCGACGAUCCCACCCCUGACCCAUCUGUCAGCUUUUUCCCAGGGAGCCGUUUCAGGGGUUCUGGGCAGCCGGCUGGGCCUGGCCUCAGAACCUGGUGGCUCCUGCCUGCUCCUUCACUUUUGUAAAACCCAACAGAGGAUUGAGCAUCA
# B11: ENSG00000115904:stop:overlap|stop_codon|ENSG00000115904|stop_codon|NA|stop_codon (ssRNA)
# RNA: GGGAGUUCUACAGUCCGACGAUCUUUUGCAACGAAUGGAAGAAUUUAUUGGAACAGUAAGAGAGCUGUACAGCCAUCAGAAUUAGUUGGAAGUGUGUGGACAAAAGAAGACAAAGAAAUUAACUCUCCUAAUCUUCUGAAAAUCAACAGAGGAUUGAGCAUCA
# B12: chr1:236581285:236581397:-|CDS|ENSG00000119285|unk|FALSE|unique (ssRNA)
# RNA: GGGAGUUCUACAGUCCGACGAUCCAUCUAGAAGAUGUUUUUCAGUUAUUCAAGUUCUGUUCUGUUUUAUGGACCUAUGGUUCUAGCCUUUCAAAUCCACUAAACUGCAGUGUGAAAACAGUGCUGCAGACUCAAGCUCUUUAUCAACAGAGGAUUGAGCAUCA
# B13: chr7:21908192:21908293:-|CDS|ENSG00000164649|msi1|total|mutant (ssRNA)
# RNA: GGGAGUUCUACAGUCCGACGAUCUUUUCCCGCGCACGCUUACAGAAUGAGAAAAAAACAAUUCUUGAAAGAAAGAAAGACUGCCGACAGGUGAUACAAAGGGAAGAUUCUACCUCUGAGUCUGAGGAUGACUCUCGGGAUGAGCAACAGAGGAUUGAGCAUCA
# B14: chr3:48467913:48467962:-|3pUTR|ENSG00000164054|msi1_unk|total|mutant (ssRNA)
# RNA: GGGAGUUCUACAGUCCGACGAUCCCCAGACAUGAAUACCUCGUGUUCCUCCUCCCUCUAUUACUGUUUCACCAGAGCUGUCUCCGCUCAAAUCUGUUGUGUUUCUGAGUCCCGGGUCUGUACACUUGUUUAUAAUAAAUGCAACAACAGAGGAUUGAGCAUCA
# B15: chr13:75481370:75481471:-|CDS|ENSG00000136111|msi1|FALSE|unique (ssRNA)
# RNA: GGGAGUUCUACAGUCCGACGAUCCUCAGCGCGCCCUUCCUGCGUUGCGUCCCCGCGCCGGGCGCUGGGGCCUCGGGGGGCACUAGUCCGUCGGCCACGCAGCCCAACCCGGCGGUAUUCAUCUUCGAGCACAAGGCGCAGCAUCAACAGAGGAUUGAGCAUCA
# B16: chr20:23354638:23354749:+|3pUTR|ENSG00000132661|unk|FALSE|unique (ssRNA)
# RNA: GGGAGUUCUACAGUCCGACGAUCAAGUUCUAGGAGUCCCUUUCCUGAAUAUAUACUUGUUUGUCAUAGUUUCCUUUUCAAAGUAGUAAACUUUUCUAUUUUUCUACUUGCCCAGUAGAGACUCUGAUUCUGGAAAUUCUGACACAACAGAGGAUUGAGCAUCA
# B17: chr13:29511929:29512034:-|3pUTR|ENSG00000139514|msi1_unk|FALSE|overlapping (ssRNA)
# RNA: GGGAGUUCUACAGUCCGACGAUCUAUCAUAUCCCUCAUUUCUUUCCCUGAAAUAAAAAUACACACAAGCAAAAAAAAAAUGAUAGUUUCACAUCUCUUAGUUCCCUUGCCCAAACAAGAAUAUUCUUAGUUCCACUGGCCAGGCAACAGAGGAUUGAGCAUCA
# B18: chr19:34227675:34227687:+|3pUTR|ENSG00000257103|msi1_unk|FALSE|overlapping (ssRNA)
# RNA: GGGAGUUCUACAGUCCGACGAUCUUAAAACAUGAGCAUUAAAUAUAUUUGGAAUAGCAGAAGGUUAAGUAAUUUCUUAUGUAUAGUUAAACUAAAGCAGUACUUCAGUGGGACUUAACAAGUAUUUUUUCAUCACUGAAAGGUCAACAGAGGAUUGAGCAUCA
# B19: chr6:105099394:105099495:-|3pUTR|ENSG00000112276|msi1|FALSE|unique (ssRNA)
# RNA: GGGAGUUCUACAGUCCGACGAUCUCCGUUGAAUGAAGCUCAUUGAUUGGCCAUGCUGGUCAUGUCUAUUUUGCUUCAUCCACUAGAACCAACUUUGAGUCAGUCUCCUGUUACGUUAAAUGGCUAAGAAAAGUUCCAAAUGAACAACAGAGGAUUGAGCAUCA
# B20: chr12:47968718:47968836:+|3pUTR|ENSG00000134291|unk|total|mutant (ssRNA)
# RNA: GGGAGUUCUACAGUCCGACGAUCCUGGGAGCUUUUUGAAAAGAAAGAAAAAAGUGUGUUGGCUUUUUUUUUUUUCCGAAAGUCCGAAUUGUUUUUACCAAGAGUCUAUGUGGGGCUUGAUUCACCCUUCAUCCAUUGGCUGGACAACAGAGGAUUGAGCAUCA
# B21: chr20:38493008:38493109:+|CDS|ENSG00000170471|unk|FALSE|unique (ssRNA)
# RNA: GGGAGUUCUACAGUCCGACGAUCAUUGGAUGGAGAGACUGUAAAAUAUUGCGUUGAUGUAUAUACAGACUGGAUUAUGGCUUUAGUGUUGCCAAAAGAUUCUAUUCCAUUGCCAGUUAUUAAAGAGCCUAAUCAAUAUGUUCACAACAGAGGAUUGAGCAUCA
# B22: chr2:37644049:37644150:-|3pUTR|ENSG00000163171|msi1|FALSE|unique (ssRNA)
# RNA: GGGAGUUCUACAGUCCGACGAUCUUAGGACAACUAACCAAGUAGACGAAACAAGUUCCCCUAGGCAGGGGUGUCCAAUAUUUUAGCUUCCCUGGACCGCAUUGGAAGAAUUUUCUUGGGCCACAUGUAAAACACACUAACACUCAACAGAGGAUUGAGCAUCA
# Target: MSI1 full-length (mouse, UniProt Q61474 1-362)
# Sequence of UniProt Q61474 (Q61474 whole entry): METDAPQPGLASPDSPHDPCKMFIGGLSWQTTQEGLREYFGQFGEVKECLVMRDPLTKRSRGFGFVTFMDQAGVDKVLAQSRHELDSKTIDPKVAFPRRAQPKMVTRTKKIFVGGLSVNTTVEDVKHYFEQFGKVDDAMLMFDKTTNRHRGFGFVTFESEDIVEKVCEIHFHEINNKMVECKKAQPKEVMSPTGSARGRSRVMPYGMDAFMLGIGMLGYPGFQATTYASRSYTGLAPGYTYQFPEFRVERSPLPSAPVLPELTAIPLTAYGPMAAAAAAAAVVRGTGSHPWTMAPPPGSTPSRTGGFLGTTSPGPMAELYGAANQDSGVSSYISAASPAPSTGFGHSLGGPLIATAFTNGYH
# Test: nsRBNS (natural sequence RNA bind-n-seq); RBNS binding buffer (assumed for nsRBNS): 25 mM Tris pH 7.5, 150 mM KCl, 3 mM MgCl2, 0.01% Triton X-100, 500 ug/ml BSA, 20 U/ml SUPERase-In, 4 C; UNK is unkempt and MSI1 is Musashi-1; names of the RNAs are library labels; protein concentration not given here; high values mean tight binding
row,Binder,binding signal [enrichment R]
1,B1,0.415
2,B2,10.3
3,B3,0.389
4,B4,0.415
5,B5,0.401
6,B6,0.887
7,B7,0.668
8,B8,2.66
9,B9,0.268
10,B10,1.39
11,B11,1.25
12,B12,0.495
13,B13,0.397
14,B14,0.67
15,B15,0.232
16,B16,0.579
17,B17,1.98
18,B18,12.1
19,B19,0.225
20,B20,0.254
21,B21,0.505
22,B22,1.22
